Results on 42 compounds are retold here after ChEMBL document CHEMBL4888484, “Replenishing the malaria drug discovery pipeline: Screening and hit evaluation of the MMV Hit Generation Library 1 (HGL1) against asexual blood stage Plasmodium falciparum ,using a nano luciferase reporter read-out” (2022).

Each structure is given as a SMILES string. Screen size: about 150,000 compounds; about 540 (0.36%) showed an effect of 50% or more. The list shows a part of the results.

For the assay, the system named is Plasmodium falciparum. Put plainly: Primary screen in NF54 nanoGlo assay, in single point, at 2uM, 72h; a lower Z score goes with more inhibition. In kind it is functional, Erythrocyte. To be noted: timepoint 72 hour.
On to `CNC(=O)C[C@H]1C(=O)NCCN1Cc1cnc(-c2cccs2)nc1`, for which the “% Inhibition” value is reported as -2% and the Z score was found to be 0.37.
`CC(=O)O[C@](C)(C#CCN1CCOCC1)c1ccccc1`: the “% Inhibition” value is reported as -4% and the Z score was 0.81.
The corresponding values for `Brc1cnc(N2CCCC[C@H]2c2nc(-c3ccccc3)no2)nc1` are 32% and -3.64.
The corresponding values for `O=C1c2ccccc2NC2(CCCC2)N1CC(F)(F)F` are -8% and 1.56.
In the case of `CCOC(=O)c1nc(C(CC(C)C)NC(=O)CC2CCOC2)n[nH]1` (centres undefined), the “% Inhibition” value is recorded as -1% and the Z score amounted to 0.14.
In the same order, the values of `Cc1cc(NC(=O)[C@H](C)N2CCN(Cc3ccco3)CC2)no1` are -18% and 1.63.
In the case of `COc1cccc2c1OCCCn1cc(nn1)CCN(C(=O)CC1CCN(C)CC1)CCNC(=O)[C@H](Cc1ccccc1)NC2=O`, the “% Inhibition” value stood at 7% and the Z score is -1.29.
The corresponding values for `COc1cc2c(C(=O)O)c(COc3ccc(Cl)cc3)n(C)c2cc1Br` are -8% and 1.
As for `COc1ccccc1N1C(=O)c2ccccc2N[C@]12C(=O)N(Cc1ccccc1F)c1ccccc12`, the “% Inhibition” value was -12% and the Z score turned out to be 1.67.
In the same order, the values of `COCc1nocc1C(=O)N1CCC(n2cncc2C)CC1` are -7% and 0.96.
Consider `CC[C@H](O)Cn1nc(C)nc1-c1cc(C2CC2)nc2ccccc12`, for which the “% Inhibition” value is recorded as -12% and the Z score turned out to be 2.3.
In the same order, the values of `O=C(Nc1cccnc1)[C@H]1CCCN(c2ccc3nnnn3n2)C1` are 5% and -0.6.
With `CCn1ncc(CN2CCN(C(=O)CC(C)C)[C@H]3CS(=O)(=O)C[C@H]32)c1C`, the “% Inhibition” value was 0% and the Z score was -0.06.
`Cc1ccnc(CNC2CCCC(S(C)(=O)=O)C2)c1` (centres undefined): the “% Inhibition” value is -2% and the Z score is recorded as 0.28.
In the same order, the values of `COc1ccc(Cl)cc1N1CCC(N2C(=O)C3CCCN3C2=O)C1` (centres undefined) are -1% and 0.08.
Regarding `CO[C@H]1C[C@@H](O)C12CCN(C(=O)Nc1ccccc1F)CC2`, the “% Inhibition” value is -5% and the Z score is reported as 1.
The corresponding values for `O=C(NCCNCc1cnc(C2CCC2)s1)C1CCCC1` are -10% and 0.85.
In the same order, the values of `O=C(NCCc1cn2c(n1)CCCC2)C1CCC1` are 5% and -0.53.
`Cc1cc(=O)[nH]c(NCCNc2nccc(N3CCC[C@H](O)C3)n2)n1`: the “% Inhibition” value is given as 1% and the Z score was -0.18.
With `CN(Cc1ccc(-n2cccn2)cc1)C(=O)c1cnc(O)cn1`, the “% Inhibition” value is recorded as -8% and the Z score stood at 1.24.
The corresponding values for `Cc1cnc(C(=O)N2CCC[C@H]2C(=O)Nc2ccc(Cl)cc2Cl)cn1` are -1% and 0.11.
As for `CCS(=O)(=O)NCCn1nc(-c2ccsc2)cc1C1CC1`, the “% Inhibition” value was found to be 24% and the Z score is -3.13.
On to `COC(=O)[C@@H]1CN(C(=O)c2ccc(NC(=O)NC(C)C)cc2)C[C@H]1C`, for which the “% Inhibition” value is listed as 0% and the Z score came to 0.08.
Consider `Nc1cccnc1-c1cnc2ccc(F)cc2c1`, for which the “% Inhibition” value is -8% and the Z score amounted to 0.77.
Consider `CN(C)C[C@H]1CN(Cc2csc(-c3cccs3)n2)CCO1`, for which the “% Inhibition” value is -12% and the Z score turned out to be 1.9.
For `C[C@H](NC(=O)C(C)(C)c1cccnc1)c1cc(Cl)cc2c1OCC2`, the “% Inhibition” value amounted to 15% and the Z score is listed as -1.95.
The corresponding values for `CCc1n[nH]c(C(=O)N[C@@H](C)C2=CCCCC2)c1C` are -15% and 1.72.
The corresponding values for `CN1C[C@@H](NC(=O)c2ccc(Cl)c(N)c2Cl)CCC1=O` are -2% and 0.43.
In the same order, the values of `CC(=O)N1CCC(C(=O)Nc2ccc3c(c2)OCCCO3)CC1` are 4% and -0.48.
With `COc1cc(-c2noc(-c3ccccc3)n2)ccc1OCc1ccccc1F`, the “% Inhibition” value was -20% and the Z score stood at 2.01.
In the case of `CO[C@@H]1CCC[C@@H]2CN(Cc3ccc4c(c3)CCO4)C[C@@H]21`, the “% Inhibition” value is listed as -2% and the Z score is recorded as 0.38.
On to `COC[C@](C)(NC(=O)CCC(F)(F)F)c1ccccc1`, for which the “% Inhibition” value is -1% and the Z score amounted to 0.2.
The corresponding values for `COc1cccc(CNC(=O)CS(=O)(=O)C(C)(C)C)c1` are -13% and 1.51.
As for `COCCc1noc(CN(C2CC2)C2CCCCC2C2CCCCC2)n1` (centres undefined), the “% Inhibition” value was -16% and the Z score was 2.98.
In the same order, the values of `O=C(Nc1cccc(OCCn2cncn2)c1)[C@@H]1CCCc2ccccc21` are 34% and -4.61.
The corresponding values for `c1ccc(CN2CCC(N3C[C@H](OCC4CC4)C34CCOCC4)CC2)nc1` are -5% and 0.86.
Turning to `CN1CCCCC[C@H]1C(=O)NCCOCc1ccccc1`, the “% Inhibition” value is on record as -15% and the Z score is recorded as 2.59.
The corresponding values for `Cc1cc(NC(=O)N2CCN(S(=O)(=O)NC(C)C)CC2)ccn1` are 4% and -0.47.
As for `CCC(=O)N1CCc2ccc(OCc3nc(C(=O)N(C)Cc4ccco4)cs3)cc2[C@@H]1c1ccc(C)cc1`, the “% Inhibition” value is recorded as -24% and the Z score is recorded as 3.22.
The corresponding values for `CC(C(=O)NCC1CCCC12NC(=O)NC2=O)c1ccc(Cl)s1` (centres undefined) are -9% and 1.23.
The corresponding values for `CCNC(=O)N1CCN(C(=O)c2nccc3ccccc23)CC1` are -7% and 1.38.
The corresponding values for `C=CCn1cc(CNCc2cccc3[nH]ccc23)c(C)n1` are 19% and -2.4.
